# Hit rate of the full screen: of about 340,000 compounds, about 6,900 (2%) were called active. Rule as the data show it: active = inhibition above about 30%; inactive = below that, where a call was filed. This is a selection; strong and weak results do not stand in their true shares. The source gives no active or inactive call for entries shown without one.
# Molecular target: D(2) dopamine receptor (Homo sapiens) (UniProt P14416)
# Experiment: HTS Assay for Allosteric Antagonists of the Human D2 Dopamine Receptor: Primary Screen for Antagonists; also: 0% is about no effect
# Conditions: HEK293 TREx D2 cells, calcium flux, dopamine EC80; at 10 µM; stronger effect = higher value
# Summary of the method: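 Compounds are added to dye-loaded, induced HEK293 T-REx cells coupled to calcium release via D2; after a 3 min kinetic read an EC80 dopamine stimulus is given and fluorescence is recorded for 3 more min.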
# UniProt P14416, sequence (P14416 whole entry, looked up): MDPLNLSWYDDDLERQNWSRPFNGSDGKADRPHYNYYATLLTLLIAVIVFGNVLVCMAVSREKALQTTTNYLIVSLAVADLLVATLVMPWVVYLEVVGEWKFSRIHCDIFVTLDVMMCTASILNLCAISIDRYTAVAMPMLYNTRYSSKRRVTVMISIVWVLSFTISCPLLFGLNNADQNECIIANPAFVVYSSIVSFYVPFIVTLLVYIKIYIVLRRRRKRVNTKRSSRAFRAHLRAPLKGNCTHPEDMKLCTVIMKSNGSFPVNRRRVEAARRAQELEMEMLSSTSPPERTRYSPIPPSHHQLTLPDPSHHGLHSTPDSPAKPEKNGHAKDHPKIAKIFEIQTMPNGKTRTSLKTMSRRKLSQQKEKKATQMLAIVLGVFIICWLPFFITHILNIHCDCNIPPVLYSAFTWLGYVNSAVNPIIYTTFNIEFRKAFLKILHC
row,SMILES,inhibition
1,COc1cccc(N2CCN(Cc3ncc(-c4ccccc4)o3)CC2)c1,active: 48.1%
2,COc1ccc(OC)c(NC(=O)Cn2c(=O)cc(-c3ccccc3)c3c(C)nn(C)c32)c1,-5.15%
3,COc1cc(NC(=O)CCCOc2cc(=O)n(C)c3ccccc23)cc(OC)c1OC,-3.41%
4,CCOC(=O)CNC(=O)N1CCN(c2nnc(C)c3c(C)n(-c4ccc(Cl)cc4)nc23)CC1,5.05%
5,Cc1cccc(N2CCN(C(=O)CS(=O)(=O)Cc3nc(-c4ccccc4C)oc3C)CC2C)c1 (configuration not stated),-14.8%
6,CCOc1ccc(N(Cc2ccccc2)C(=O)c2nc(S(C)(=O)=O)ncc2Cl)cc1,-6.36%
7,CCc1ccc(S(=O)(=O)c2nnn3c2nc(Nc2ccc(NC(C)=O)cc2)c2sccc23)cc1,3.19%
8,CC(=O)c1c(C)oc2c1cc(NS(=O)(=O)c1ccc(Cl)c(C)c1)c1ccccc12,4.82%
9,O=S(=O)(NCc1nc2cccnc2n1Cc1ccccc1Cl)c1ccc(F)c(Cl)c1,-9.23%
10,CC1CCN(c2nc3ccc(C(=O)NCc4ccccc4)cc3s2)CC1,-0.279%
11,COc1ccc(Cn2c(SCc3ccc(C(=O)NC(C)c4ccccc4)cc3)nc3cccnc32)cc1 (configuration not stated),-11.6%
12,COc1cc(NC(C)=O)c2ncccc2c1NC(C)=O,active: 36.7%
13,Cc1nnc(NC(=O)c2ccccc2)s1,6.22%
14,COc1ccc(CNC(=O)c2ccc3nc(-c4ccc(F)cc4)c(-c4ccc(F)cc4)nc3c2)cc1,16.5%
15,Cc1cc(NC(=O)CCNS(=O)(=O)c2cccc3nsnc23)ccc1Br,-4.39%
16,Cc1ccc(NC(=O)c2ccccc2Br)c(C(=O)c2ccccc2)c1,5.77%
17,Cc1cccc(-n2nc(C)c(C(=O)Nc3cc(C)ccc3C)c2-n2cccc2)c1,-5.06%
18,Cc1ccc(C(=O)Nc2cc(Cl)ccc2N2CCCCC2)s1,active: 32.2%
19,Cc1ccc(-n2c(SCc3ccccc3)nc3c([nH]c4ccccc43)c2=O)cc1,-2.16%
20,COc1ccc(NC(=O)CC2NCCNC2=O)c(OC)c1 (configuration not stated),19.7%
21,Cc1c(CC(=O)NCc2ccc(F)cc2)c(=O)oc2cc(O)c(Cl)cc12,-14.2%
22,CCOC(=O)c1c(NC(=O)C2c3ccccc3Oc3ccccc32)sc(C)c1C,6.5%
23,O=C(NCc1ccccc1Cl)c1ccc2oc(=O)n(Cc3ccccc3)c2c1,-0.565%
24,Cc1cc(C)n(-c2nc3ccccc3nc2N2CCN(c3cccc(C(F)(F)F)c3)CC2)n1,-6.56%
25,COc1cccc(CNC(=O)c2cc(S(=O)(=O)N3CCCCC3)c[nH]2)c1,5.42%

row,SMILES,inhibition
1,Cc1csc2nc(COC(=O)c3ccccc3NC(=O)c3ccc(C(C)(C)C)cc3)cc(=O)n12,3.11%
2,COc1ccc(-c2cc(C(F)(F)F)nc(NCCc3ccccc3)n2)cc1OC,-4.17%
3,COc1ccc2oc(=O)c(C(=O)N3CCN(c4ccc(C)cc4)CC3)cc2c1,-4.28%
4,CCN(CC(=O)Nc1cc(Cl)ccc1C)C(=O)Cc1sc(C)nc1-c1ccc(F)cc1,active: 75.5%
5,O=C(CCCn1c(=O)c2cccn2c2ccccc21)NCCc1ccc(Cl)cc1,0.713%
6,COc1ccc(-c2cc(C(=O)Nc3c(C)n(C)n(-c4ccccc4)c3=O)no2)cc1OC,-0.772%
7,CSc1nn(Cc2ccc(C)cc2)c(N)c1S(=O)(=O)c1ccccc1,-6.35%
8,COC(=O)c1cc(-c2ccc(C)cc2)c2c(=O)n(C)c(=O)n(C)c2n1,5.82%
9,OCCN(CCO)c1ncnc2c1cnn2-c1ccc(F)cc1,13.9%
10,COc1ccccc1C(=O)Oc1ccc(C(c2c(C)[nH][nH]c2=O)c2c(C)[nH][nH]c2=O)cc1,23.8%
11,Cc1ccc(CNC(=O)c2ccc(NC(=O)N3CCSc4ncccc43)cc2)cc1,5.02%
12,CCc1ccc(-n2c(=O)c3c4c(sc3n(CC(=O)N3CCCCC3CC)c2=O)CCC4)cc1 (configuration not stated),19.9%
13,O=C(CN1C(=O)c2cccnc2Oc2ccc(Cl)cc21)NC1CCCCCC1,active: 41.1%
14,Cc1cccc(C)c1OCCCn1c(CCNC(=O)C2CCCCC2)nc2ccccc21,-1.07%
15,Cc1ccc(NC(=O)Cn2c(=O)n(Cc3nc(C)no3)c(=O)c3ccccc32)c(Cl)c1,7.18%
16,CCC(=O)Nc1ccc(NC(=O)c2ccccc2)nc1,active: 31.7%
17,CCOc1ccccc1NC(=O)c1nc(SC(C)C)ncc1Cl,8.76%
18,Cc1c(CNC2CCCCC2)c(C(=O)O)c(C)n1Cc1cccc(Cl)c1,-20%
19,Cc1c(CCC(=O)NCCc2ccc(Cl)cc2)c(=O)oc2c(C)c(O)ccc12,-9.23%
20,CCCCN1C2CCCC1CC(NC(=O)c1cccc(Cl)c1)C2 (configuration not stated),active: 30.8%
21,COc1cccc(C(=O)c2c(N)c(-c3nc(-c4ccccc4)cs3)c3ccccn23)c1,8.51%
22,CCO[C@H]1OC(C(=O)O)=C[C@@H](c2csc3ccccc23)[C@@H]1CCCO,active: 31.6%
23,O=C(CN1C(=O)COc2ccccc21)NCCc1ccc(Cl)cc1,-3.35%
24,CCOc1ccc(N(CC)S(=O)(=O)N2CCCC(C(=O)Nc3ccc(C(C)=O)cc3)C2)cc1 (configuration not stated),-9.68%
25,COc1ccc(N2CCN(CCCNC(=O)c3cc(Nc4ccc(OC)cc4OC)nc4ccccc34)CC2)cc1,-23.6%

row,SMILES,inhibition
1,COC(=O)C1=C(C)N(c2ccc(Cl)c(Cl)c2)C(=O)C1,active: 32.1%
2,O=C(CCS(=O)(=O)c1ccccc1)N(Cc1cccnc1)c1nc2ccc(Cl)cc2s1,6.28%
3,COc1ccc(-c2noc(N3CCC(C(=O)NCc4ccccc4Cl)CC3)n2)cc1,active: 47.6%
4,CCCN1Cc2cccc(C(=O)Nc3ccc(C(C)=O)cc3)c2C1=O,-12.8%
5,OCCN1CCN(CCOc2cccc(Cl)c2)CC1,active: 76%
6,Cc1ccccc1Nc1c(-c2cc(Br)ccc2F)nc2ccccn12,-5.25%
7,O=C(CCN1CCN(c2ccccc2)CC1)NNC(=O)Cc1ccccc1Cl,active: 48.2%
8,CCOC(=O)C1CCC(CN(Cc2ccccc2)S(=O)(=O)c2ccc(Br)cc2)CC1 (configuration not stated),-12.2%
9,Cc1cccc(/C=C(\C#N)c2nc3ccccc3c(=O)[nH]2)c1,-1.63%
10,COc1cc(NC(=O)CCS(=O)(=O)c2ccc3c(c2)CC(=O)N3C)cc(OC)c1OC,-0.412%
11,CSc1cccc(NC(=O)CCCNC(=O)c2ccc(Cl)cc2)c1,active: 44.6%
12,CCOc1ccc(-c2cc(C(=O)Oc3ccc(C#N)cc3)no2)cc1,9.83%
13,COc1ccc(/C=C/c2nc(C#N)c(NCc3ccc(F)cc3)o2)cc1OC,-13.5%
14,COc1ccccc1NC(=O)c1oc2ccccc2c1NC(=O)c1cccc(OC)c1OC,-5.99%
15,COc1ccccc1Cn1c(CNS(=O)(=O)c2ccc(C(C)C)cc2)nc2cccnc21,-7%
16,CCC(=O)N1CCCc2cc(S(=O)(=O)N3CCC(C(=O)NC4CCCCC4)CC3)ccc21,9.25%
17,O=C(c1ccc2c(c1)N(Cc1ccc(F)cc1)C(=O)c1ccccc1S2(=O)=O)N1CCCC1,9.87%
18,COc1ccc(CNC(=O)c2nc(SCc3ccccc3F)ncc2Cl)cc1,13.7%
19,Fc1ccccc1Cc1cn2cc(-c3ccc(Cl)cc3)nc2s1,-1.1%
20,O=C(Cn1c(NCCO)nc2ccccc21)c1ccc([N+](=O)[O-])cc1,active: 30.1%
21,Fc1ccc(-c2nn(-c3ccccc3Cl)c3c2cnc2ccccc23)cc1,17%
22,Cc1ccc2onc(CC(=O)N3CCN(c4cc(Cl)ccc4C)CC3)c2c1,16.2%
23,COc1ccc(-n2nc(C(=O)N3CCN(c4cccc(C)c4C)CC3)c3c4ccccc4n(C)c3c2=O)cc1Cl,-10.4%
24,COc1cccc(CNC(=O)Cn2ncn3nc(-c4cccs4)cc3c2=O)c1OC,14%
25,O=C(NCC(c1ccco1)N1CCN(c2ccccc2F)CC1)C1CCCCC1 (configuration not stated),active: 59.2%

row,SMILES,inhibition
1,CCC(Oc1ccccc1)C(=O)Nc1cc(-c2cccc(C)c2)nn1-c1ccccc1 (configuration not stated),7.4%
2,COc1ccc(-n2c(C)c(C(C)=O)c3cc(OC(=O)COc4ccccc4)ccc32)cc1,-6.1%
3,Cc1cc(C)cc(OCC(=O)N(Cc2cccs2)c2ccc(Cl)cc2)c1,-13.4%
4,Cc1cc(-c2ccc(C)c(S(=O)(=O)NCc3cccc(Br)c3)c2)on1,3.34%
5,CCOCCCNC(=O)c1cnc2sc(N3CCCCC3)nn2c1=O,1.1%
6,CCCCCn1c(CCNC(=O)c2ccc(F)cc2)nc2ccccc21,-9.78%
7,COCCCNC(=O)CCc1c(C)nc2nc(-c3cc(OC)cc(OC)c3)nn2c1C,12.7%
8,CC(C)N(Cc1ccccc1)S(=O)(=O)c1ccc(-c2cc(C(F)(F)F)on2)s1,-9.96%
9,CC(C)OCCCNC(=O)CN1C(=O)COc2ccc(S(=O)(=O)N3CCCCCC3)cc21,5.48%
10,CCc1ccccc1-n1c(C)nc2cc(C(=O)NCCc3ccc(Cl)cc3)ccc21,-7.38%
11,O=C(NCCCc1nc2ccccc2n1Cc1ccc(Cl)cc1)C1CCCCC1,1.57%
12,Cc1ccc(CNC(=O)C2CCN(S(=O)(=O)c3cn(C)cn3)CC2)cc1,21.4%
13,Cc1ccc(-n2ncc(C(=O)NCCN3CCCC3)c2C2CCN(C(=O)OC(C)(C)C)CC2)cc1C,1.48%
14,Cc1cc(C(=O)NCCCN2CCN(c3cc(Cl)ccc3C)CC2)n(-c2ccccc2)n1,active: 47.2%
15,COc1cccc(N2CCN(C(=O)c3cc4c(=O)oc5ccc(C)cc5c4s3)CC2)c1,0.134%
16,COc1ccccc1N1CCN(CC(O)c2c(C)[nH]c3ccccc23)CC1 (configuration not stated),active: 64.9%
17,CCCCn1nc(NC(=O)c2cccc(Cl)c2)c2cc3cccc(C)c3nc21,-5.69%
18,CCCn1c2ccccc2c2cnn(CC(=O)N3CCCC(C)C3)c(=O)c21 (configuration not stated),6.19%
19,CC(C)c1ccc(Nc2ncnc3onc(-c4ccc(F)cc4)c23)cc1,-10.7%
20,COc1ccc(OC)c2sc(N3CCN(C(=O)CCS(=O)(=O)c4ccc(F)cc4)CC3)nc12,-23.3%
21,Cc1cc(Cl)ccc1NC(=O)Cn1nnc2sc(-c3ccccc3)cc2c1=O,20.1%
22,COC(=O)c1ccc2c(c1)N(Cc1ccc(Cl)cc1)C(=O)c1ccccc1S2,2.02%

# Reference: PubChem BioAssay AID485344 (National Center for Advancing Translational Sciences (NCATS), 2010)
